# Results published in the antibiotic and cytotoxicity screens of Wong et al. (2023).
# Some of the results follow.
# Legend:
# HSkMC = human skeletal muscle cells; test: cytotoxicity call (relative viability < 0.9); conditions: 10 µM
# HepG2 = test: cytotoxicity call (relative viability < 0.9); conditions: 10 µM
# S. aureus RN4220 = test: growth inhibition call (relative growth <= 0.2); conditions: 50 µM
SMILES,cytotoxicity call (HSkMC),cytotoxicity call (HepG2),growth inhibition call (S. aureus RN4220)
C[C@@H]1CCCCO[C@H](CN(C)Cc2ccc(Cl)c(Cl)c2)[C@@H](C)CN([C@H](C)CO)C(=O)c2cc(NC(=O)Nc3ccc4c(c3)OCO4)ccc2O1,inactive,active,inactive
COCC#Cc1cnc2c(c1)C(=O)N([C@@H](C)CO)C[C@H](C)[C@H](CN(C)C(=O)c1cnccn1)O2,inactive,inactive,inactive
COCC(=O)Nc1ccc2c(c1)C(=O)N(C)[C@@H]1CC[C@@H](CC(=O)NCc3ccccc3Cl)O[C@@H]1CO2,inactive,inactive,inactive
C[C@H](CO)N1C[C@H](C)[C@H](CN(C)CC2CCCCC2)OCCCC[C@H](C)Oc2ccc(NS(=O)(=O)c3ccccc3)cc2C1=O,inactive,inactive,inactive
COc1ccc(S(=O)(=O)Nc2ccc3c(c2)C(=O)N([C@@H](C)CO)C[C@@H](C)[C@@H](CN(C)S(=O)(=O)c2cn(C)cn2)OCCCC[C@H](C)O3)cc1,inactive,inactive,inactive
C[C@@H]1CN([C@@H](C)CO)S(=O)(=O)c2ccc(-c3cccc(F)c3)cc2O[C@@H]1CN(C)S(C)(=O)=O,inactive,inactive,inactive
C[C@@H]1CN([C@@H](C)CO)C(=O)c2cc(NC(=O)CCC(F)(F)F)ccc2O[C@@H](C)CCCCO[C@H]1CN(C)CC1CCCCC1,inactive,inactive,inactive
COc1ccc(S(=O)(=O)Nc2ccc3c(c2)C(=O)N([C@H](C)CO)C[C@@H](C)[C@@H](CN(C)S(=O)(=O)c2cn(C)cn2)OCCCC[C@H](C)O3)cc1,inactive,inactive,inactive
C[C@H]1CN([C@@H](C)CO)C(=O)CCCn2cc(nn2)CO[C@H]1CN(C)S(C)(=O)=O,inactive,inactive,inactive
C[C@H]1CN([C@@H](C)CO)S(=O)(=O)c2ccc(C#Cc3cccnc3)cc2O[C@H]1CN(C)C(=O)CN(C)C,inactive,inactive,inactive
C[C@@H]1CN([C@H](C)CO)C(=O)c2cc(NC(=O)C3CC3)ccc2O[C@H]1CN(C)S(=O)(=O)c1ccc(F)cc1,inactive,inactive,inactive
C[C@@H]1CN([C@H](C)CO)C(=O)c2cc(NC(=O)Cc3ccccc3)ccc2O[C@@H](C)CCCCO[C@@H]1CN(C)Cc1ccc(C(=O)O)cc1,inactive,inactive,inactive
Cc1ccc(S(=O)(=O)N(C)C[C@H]2OCCCC[C@@H](C)Oc3ccc(NS(C)(=O)=O)cc3C(=O)N([C@H](C)CO)C[C@H]2C)cc1,inactive,inactive,inactive
C[C@@H]1CCCCO[C@H](CN(C)C(=O)c2ccccc2)[C@H](C)CN([C@@H](C)CO)C(=O)c2cc(NC(=O)Nc3ccc(F)cc3)ccc2O1,inactive,inactive,inactive
Cc1ccccc1S(=O)(=O)N1C[C@@H](O)COC[C@H]2O[C@@H](CC(=O)N3CCOCC3)CC[C@@H]21,inactive,inactive,inactive
C[C@@H]1CN([C@@H](C)CO)C(=O)c2cc(NC(=O)Nc3ccc4c(c3)OCO4)ccc2O[C@H]1CN(C)C(=O)Nc1cccc2ccccc12,inactive,inactive,inactive
C[C@@H]1CN([C@@H](C)CO)C(=O)Cc2cc(NS(=O)(=O)c3ccc(Cl)cc3)ccc2O[C@@H]1CN(C)C(=O)Nc1cccc2ccccc12,inactive,inactive,inactive
O=C(C[C@H]1CC[C@@H](NC(=O)c2ccc(F)cc2)[C@@H](CO)O1)NCc1ccncn1,inactive,inactive,inactive
C[C@H]1CN([C@@H](C)CO)C(=O)c2ccccc2-c2ccccc2CO[C@H]1CN(C)Cc1ccc(Cl)c(Cl)c1,active,inactive,inactive
C[C@@H]1CN([C@H](C)CO)C(=O)c2cccc(NC(=O)Nc3cccc4ccccc34)c2O[C@@H]1CN(C)Cc1ccc(C(=O)O)cc1,inactive,inactive,inactive
OC[C@H]1NC[C@H](O)[C@@H](O)[C@@H]1O,inactive,inactive,inactive
C[C@H](CO)N1C[C@H](C)[C@@H](CN(C)C)OCCCC[C@H](C)Oc2ccc(NC(=O)CCCN(C)C)cc2C1=O,inactive,inactive,inactive
C[C@@H]1CN([C@H](C)CO)C(=O)Cc2cc(NS(=O)(=O)c3cccs3)ccc2O[C@@H]1CN(C)Cc1ccc(Cl)c(Cl)c1,active,inactive,inactive
CO[C@H]1CN(C)C(=O)c2ccc(NS(=O)(=O)c3cn(C)cn3)cc2OC[C@@H](C)N(Cc2cccc(F)c2)C[C@H]1C,inactive,inactive,inactive
Cc1noc(C)c1NC(=O)Nc1ccc2c(c1)C(=O)N([C@H](C)CO)C[C@H](C)[C@@H](CN(C)C(=O)Nc1ccccc1)OCCCC[C@H](C)O2,inactive,inactive,inactive
CC(C)NC(=O)N(C)C[C@@H]1Oc2ncc(-c3ccc(C(=O)N(C)C)cc3)cc2C(=O)N([C@H](C)CO)C[C@@H]1C,inactive,inactive,inactive
C[C@H](CO)N1C[C@H](C)[C@H](CN(C)CC2CC2)Oc2ccc(NS(=O)(=O)c3ccc(F)cc3)cc2CC1=O,inactive,inactive,inactive

SMILES,cytotoxicity call (HSkMC),cytotoxicity call (HepG2),growth inhibition call (S. aureus RN4220)
C[N+](C)(C)CCCCNC(=O)[C@H]1C[C@H]2C(=O)N[C@@H](Cc3ccccc3)C(=O)N2[C@H]1c1cccc(OCCO)c1,inactive,inactive,inactive
C[C@H](CO)N1C[C@H](C)[C@@H](CN(C)Cc2ccc(Cl)c(Cl)c2)Oc2ccc(NC(=O)Cc3cn(C)c4ccccc34)cc2CC1=O,inactive,inactive,inactive
CC(C)(C)OC(=O)C[C@@H]1CC=CC[C@@H](CC(=O)NCCO)C(=O)N[C@@H](Cc2c[nH]c3ccccc23)COC1=O,inactive,inactive,inactive
C[C@@H]1CN([C@H](C)CO)S(=O)(=O)c2ccc(Br)cc2O[C@H]1CN(C)S(=O)(=O)c1ccccc1,inactive,inactive,inactive
CCCC(=O)Nc1ccc2c(c1)C(=O)N(C)[C@@H]1CC[C@H](CC(=O)NCCN3CCCCC3)O[C@@H]1CO2,inactive,inactive,inactive
C[C@H](CO)N1C[C@H](C)[C@H](CN(C)S(=O)(=O)c2cn(C)cn2)Oc2c(NC(=O)NC3CCCCC3)cccc2C1=O,inactive,inactive,inactive
CCn1c(CN2CCN(C(=O)c3ccco3)CC2)nc2c1c(=O)n(C)c(=O)n2C,inactive,inactive,inactive
O=c1ccn([C@@H]2O[C@H](CO)[C@@H](O)[C@H]2O)c(=O)[nH]1,inactive,inactive,inactive
COCC#Cc1ccc2c(c1)O[C@H](CN(C)C(=O)COC)[C@@H](C)CN([C@@H](C)CO)S2(=O)=O,inactive,inactive,inactive
C[C@@H]1CCCCO[C@@H](CN(C)C(=O)Nc2ccccc2)[C@H](C)CN([C@H](C)CO)C(=O)c2cc(NS(=O)(=O)c3cccs3)ccc2O1,inactive,inactive,inactive
Cc1cc(C(=O)Nc2cccc3c2O[C@H](CN(C)Cc2ccccc2)[C@H](C)CN([C@@H](C)CO)C3=O)n(C)n1,inactive,inactive,inactive
C[C@@H]1CN([C@@H](C)CO)C(=O)c2cccc(NS(C)(=O)=O)c2O[C@H]1CN(C)C(=O)Nc1ccc2c(c1)OCO2,inactive,inactive,inactive
C[C@H]1CN([C@@H](C)CO)C(=O)Cc2cc(NS(=O)(=O)c3cn(C)cn3)ccc2O[C@H]1CN(C)S(=O)(=O)c1cn(C)cn1,inactive,inactive,inactive
C[C@@H]1CN([C@@H](C)CO)C(=O)c2cc(C#CC(C)(C)O)cnc2O[C@H]1CN(C)C(=O)CN(C)C,inactive,inactive,inactive
Cc1ccc(S(=O)(=O)Nc2ccc3c(c2)C(=O)N([C@H](C)CO)C[C@H](C)[C@H](CN(C)CC2CCCCC2)OCCCC[C@@H](C)O3)cc1,inactive,inactive,inactive
O=C(C[C@@H]1CC[C@@H]2[C@H](COC[C@@H](O)CN2C(=O)c2ccc(F)cc2)O1)NCCCN1CCOCC1,inactive,inactive,inactive
C[C@@H]1CCCCO[C@@H](CN(C)C)[C@@H](C)CN([C@H](C)CO)C(=O)c2cc(NC(=O)CCCN(C)C)ccc2O1,inactive,inactive,inactive
COCCOC(=O)N1C(=O)[C@@]2(c3cc(C#CC4(O)CCCCCC4)ccc31)[C@H](C(=O)N1CCN(c3ncccn3)CC1)[C@H]1C(=O)O[C@H](c3ccccc3)[C@H](c3ccccc3)N1[C@@H]2c1ccccc1OCCO,inactive,inactive,inactive
CSc1ncc(F)c(N(CCO)CCO)n1,inactive,inactive,inactive
COc1ccccc1S(=O)(=O)N[C@H]1C=C[C@@H](CC(=O)N2CCN(C)CC2)O[C@H]1CO,inactive,inactive,inactive
COc1ccc(S(=O)(=O)N(C)C[C@H]2Oc3c(NS(=O)(=O)c4ccc(F)cc4)cccc3C(=O)N([C@H](C)CO)C[C@@H]2C)cc1,inactive,inactive,inactive
C[C@H](CO)N1C[C@H](C)[C@H](CN(C)C(=O)CCN2CCCCC2)Oc2ncc(C#Cc3ccccn3)cc2C1=O,inactive,inactive,inactive
C=CC[C@H](CC(=O)N(CCO)Cc1ccccc1)C(=O)N1CCC[C@@H]1COC(=O)[C@H](CC=C)NC(=O)OCC1c2ccccc2-c2ccccc21,inactive,inactive,inactive
C[C@@H]1CCCCO[C@@H](CN(C)C(=O)Cc2ccccc2)[C@H](C)CN([C@@H](C)CO)C(=O)c2cc(NC(=O)Nc3ccc4c(c3)OCO4)ccc2O1,inactive,inactive,inactive
CC[n+]1oc(-c2ccccc2)cc1C,inactive,active,inactive
COc1cc(OC)c(C(C)=O)c(O)c1C,inactive,inactive,inactive
C[C@@H]1CCCCO[C@H](CN(C)S(C)(=O)=O)[C@H](C)CN([C@@H](C)CO)C(=O)c2cc(NS(C)(=O)=O)ccc2O1,inactive,inactive,inactive
